# The supplement of paper PMC3334620
# In all, about 33,000 sequences were measured (“E-score (-0.5 to 0.5)”: median about -0.01, highest 2% from about 0.26 on). Some of the results follow.
# Target: Ste12 (UniProt P13574)
# Test: PBM E-score (8-mer binding enrichment) (E-score (-0.5 to 0.5)); higher = stronger / more preferred TF binding; most listed sequences are background and not binding sites
# Settings: protein concentration: 200 nM; construct: GST-DNA-binding domain
# Method in brief: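 Universal all-10-mer Agilent arrays, fresh or stripped once, were converted to double-stranded form by primer extension. GST-tagged yeast transcription factors from PURExpress in vitro transcription/translation, full-length or DNA-binding domain only, were applied at about 100-200 nM and detected with fluorescent anti-GST. After masliner normalisation, the Universal PBM Analysis Suite scored each ungapped eight-base word together with its reverse complement by E-score.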
row,Sequence,PBM E-score
1,CTCCGTCC,-0.216
2,AGCACCAT,-0.0597
3,CAACGTGC,-0.0286
4,CGTGCAAG,-0.161
5,GAATCCAC,-0.0305
6,CATATCCG,0.085
7,AGCTCTAT,-0.175
8,AGGTAAAC,0.22
9,CCGTGGCA,-0.0397
10,CGCTTAGC,-0.148
11,ACGAATAT,0.0367
12,GCGGCTCC,-0.21
13,AGCACCCG,-0.171
14,GGTTATTA,0.152
15,ATCACCCA,0.119
16,GTACGACA,0.0486
17,GGAATCCC,0.0198
18,ACCTATTG,-0.168
19,GACAGCGA,-0.0446
20,GGATCACC,-0.0886
21,CTTAATTC,0.166
22,CCATCGGC,-0.126
23,CTCTTCAC,-0.0677
24,AATAATCA,0.109
25,GCTTTTGA,-0.106

row,Sequence,PBM E-score
1,CATCATGG,0.0244
2,CAATTAGA,0.102
3,CACGTGAC,-0.0831
4,GCACGAGA,-0.0756
5,GCCGGTTA,-0.143
6,AGCTCCAG,-0.073
7,CCGCGATA,-0.0834
8,CATTTTAA,0.27
9,ACCTATAT,0.122
10,AGAGCACA,-0.105
11,TACGACCA,-0.0278
12,CCGGTAGA,0.0403
13,AATCGCTC,-0.115
14,CAACCAGG,-0.132
15,AAGTTATG,0.189
16,ATCTACGA,-0.157
17,ACTGGGAA,0.0846
18,GAAGTATC,0.0647
19,ACGTGAGT,0.00095
20,ACCACTGC,-0.136
21,AGGACGCA,0.0224
22,CCCCGCGG,0.0761
23,GGTCGCTA,-0.0448
24,AAGCTATG,-0.175
25,TCGCTCCA,-0.0151

row,Sequence,PBM E-score
1,GCACAACA,-0.0193
2,ACTCGGAT,0.104
3,GGTTTATA,0.199
4,GATCGTCA,-0.112
5,AAGAGCAG,-0.133
6,CAAGTCGA,-0.171
7,AGCCCGAA,-0.0955
8,CGCACGAA,0.113
9,GACTTCAA,0.0552
10,ACTTGGTG,-0.0265
11,ACAGCGTG,0.061
12,CCGGTGTC,-0.16
13,AGAGAACT,-0.0534
14,AAGCGTAG,-0.0163
15,AATGAGAT,0.142
16,ATAACCAG,-0.0264
17,ATCGCCAG,0.021
18,CCAAAGAC,-0.171
19,ATTCTCTA,-0.035
20,CCAGATGC,-0.18
21,GACGCCCC,0.0563
22,ACACAAGT,0.0836
23,TAAGTCCA,-0.0798
24,CGTGTTTC,0.36
25,TCGCCGAA,0.0616

row,Sequence,PBM E-score
1,TCCTCCGA,-0.0761
2,ATATCAGA,0.0787
3,GTAGATAA,0.183
4,ACGGAGGG,-0.0302
5,CCTGTACA,-0.0588
6,AGTTACCA,-0.0617
7,AGCATGGC,-0.0799
8,CATGTGCA,-0.191
9,CCAATTCA,0.12
10,CTTAAGTA,0.0362
11,GGTAAATA,0.127
12,CCACACAG,0.0795
13,ATACATAA,0.21
14,GCCATATA,-0.0143
15,CGCAAGAC,-0.188
16,GCGGGATA,0.133
17,AGGAGACG,-0.372
18,CAGCGACG,-0.0974
19,AGCGATCC,-0.148
20,GCTCTGGA,0.00508
21,AGCTCCCT,-0.285
22,AACGATGT,-0.0304
23,CAGGCATG,0.0594
24,GTTACGTA,-0.187
25,CATAGAAA,0.21

row,Sequence,PBM E-score
1,ATGCAGGA,-0.0982
2,GCTAGACC,-0.17
3,AGACAGTC,-0.102
4,AACTGAAG,0.158
5,CCTCGGAG,0.0196
6,AGCCAGAA,0.0307
7,TCAAGGCA,-0.169
8,GCAATGGC,-0.00313
9,AACGGATT,0.146
10,AGGTCCAA,-0.213
11,CAGGATAA,0.154
12,CCAGGAAC,-0.191
13,ATGCGGGG,-0.0837
14,CTCATTTA,0.103
15,CAATATTC,0.00821
16,GCTTGAAC,0.0421
17,CATCAGAG,-0.0298
18,CCGGCGGA,0.144
19,AGCAATCC,-0.166
20,ACCGATAG,-0.063
21,CCGGACCG,0.00062
22,TACAAAGA,0.067
23,CAAGTGCC,-0.104
24,ACGTTGTA,-0.0121
25,GGGACACC,-0.0313

row,Sequence,PBM E-score
1,TACTGTGA,0.0419
2,CTCGGGAC,-0.0582
3,ACTGGGCG,-0.0655
4,ACGGTGCA,-0.0738
5,AAATGTTA,0.247
6,CAAATTAG,0.208
7,GGTAATGA,0.0985
8,GGGCTGCA,-0.0952
9,GGCTGTAC,-0.248
10,ATCGACCC,0.162
11,AAGGATGG,-0.114
12,CCTGGCCA,-0.16
13,ATCGTCGA,-0.119
14,GCTAGAAC,-0.1
15,AGGTCAAC,-0.202
16,CCTGGAAC,0.139
17,GGGTGCAC,-0.127
18,CCAGATCA,0.139
19,GTCTCTCA,-0.184
20,ATAATACC,0.161
21,CGTCCGCC,-0.0636
22,GATGCGGA,-0.044
23,AACGCTAT,-0.158
24,ACGATCCT,-0.0389
25,CAGGGCCA,-0.365

row,Sequence,PBM E-score
1,CTGATTTC,0.0354
2,TAATAAAA,0.225
3,GCCAAAAC,0.0568
4,CACACCCG,0.0642
5,CTCAGCCA,-0.0414
6,CGAATGCG,0.00677
7,TAGTCGCA,0.0917
8,ACTGTCCC,0.0544
9,AAGAGGGC,-0.189
10,ACAGGACC,-0.183
11,CCTCCCGC,0.0602
12,GAAGAACC,0.018
13,AATGAATT,0.133
14,GCGAGACC,-0.0986
15,ACTTGTTC,-0.162
16,GCTGACCA,0.131
17,CGAGAACG,-0.0512
18,AGGGATCC,-0.162
19,ATGTCGCG,0.0908
20,AGCACGAG,0.0264
21,GGTATCAA,-0.0259
22,AGTCTGCG,-0.199
